The labels stand for the following.
B1: PhoQ; a variant is named by its letters at X, in order, P23837 (parent)
chain: MKKLLRLFFPLSLRVRFLLATAAVVLVLSLAYGMVALIGYSVSFDKTTFRLLRGESNLFYTLAKWENNKLHVELPENIDKQSPTMTLIYDENGQLLWAQRDVPWLMKMIQPDWLKSNGFHEIEADVNDTSLLLSGDHSIQQQLQEVREDDDDAEMTHSVAVNVYPATSRMPKLTIVVVDTIPVELKSSYMVWSWFIYVLSANLLLVIPLLWVAAWWSLRPIEALAKEVRELEEHNRELLNPATTRELTSLVRNLNRLLKSERERYDKYRTTLTDLTHSLKTPLXXLQXXLRSLRSEKMSVSDAEPVMLEQISRISQQIGYYLHRASMRGGTLLSRELHPVAPLLDNLTSALNKVYQRKGVNISLDISPEISFVGEQNDFVEVMGNVLDNACKYCLEFVEISARQTDEHLYIVVEDDGPGIPLSKREVIFDRGQRVDTLRPGQGVGLAVAREITEQYEGKIVAGESMLGGARMEVIFGRQHSAPKDE

The other results are listed elsewhere or left out.

The assay covers variants of B1. Briefly: enrichment ratio after two sorts for PhoP signalling (ratio (wild type AVST 3.29)); higher = more functional. Conditions: with PhoP (E. coli).
Consider YKPM, for which the enrichment ratio is no more than 0.25. With TTVE the figure was no more than 0.25; with TKWL, 4.57; with NWED, no more than 0.25. With EPTL the figure was no more than 0.25; with MMPV, no more than 0.25; with MFQM, no more than 0.25. For SNKT the value was no more than 0.25; for LCSN, no more than 0.25; for RGTM, no more than 0.25. For the variant VRPH, the enrichment ratio is no more than 0.25.

As for HDNY, the enrichment ratio was no more than 0.25. With TLAE the figure was no more than 0.25. For DDMD the value was no more than 0.25.

As to VHIA, the enrichment ratio is no more than 0.25. With ENVP the figure was 9.36. With LCFY the figure was no more than 0.25; with TGYY, 22.5; with YWGN, no more than 0.25.

As to PHKW, the enrichment ratio was no more than 0.25. Turning to QDLV, the enrichment ratio was no more than 0.25. With IKPP the figure was no more than 0.25; with LRGE, no more than 0.25. Regarding LHIN, the enrichment ratio was no more than 0.25. VWVR: the enrichment ratio is no more than 0.25.

ACFL: the enrichment ratio was no more than 0.25.

In the case of HHRF, the enrichment ratio is no more than 0.25. For TMPS the value was no more than 0.25; for YLFT, no more than 0.25.

Consider DIKP, for which the enrichment ratio is no more than 0.25.

IKRK: the enrichment ratio was no more than 0.25.

As for LAVE, the enrichment ratio is no more than 0.25.

In the case of NDRI, the enrichment ratio was no more than 0.25. With VGCC the figure was 4.93.

Consider KGGV, for which the enrichment ratio was no more than 0.25. For the variant RVGP, the enrichment ratio is no more than 0.25.

On to FYWF, for which the enrichment ratio was no more than 0.25.

Turning to NFLW, the enrichment ratio is no more than 0.25.

As for FTRY, the enrichment ratio is no more than 0.25. With ELQM the figure was no more than 0.25; with GINF, 1.84. With WNTI the figure was no more than 0.25; with YMPD, no more than 0.25. In the case of NYYT, the enrichment ratio is no more than 0.25. For NQTV the value was no more than 0.25; for YAER, no more than 0.25. For RQLI the value was no more than 0.25.

In the case of GFPD, the enrichment ratio was no more than 0.25.

RDYT: the enrichment ratio is no more than 0.25. With IWET, the enrichment ratio is no more than 0.25. For the variant IMSG, the enrichment ratio was no more than 0.25.

For DIIE, the enrichment ratio was no more than 0.25.

For the variant HDGV, the enrichment ratio is no more than 0.25.

On to HEQP, for which the enrichment ratio was no more than 0.25.

For IHPM, the enrichment ratio was no more than 0.25. For VNTS the value was no more than 0.25; for EVSG, no more than 0.25. With HLHP the figure was no more than 0.25; with VFKD, no more than 0.25; with AEAD, no more than 0.25. Take VITF: the enrichment ratio was no more than 0.25. For PNWK the value was no more than 0.25; for NFRC, no more than 0.25; for WNMG, no more than 0.25. For PCYP the value was no more than 0.25; for SMYQ, no more than 0.25. For KAKY the value was no more than 0.25; for MMVG, no more than 0.25. For the variant FPAL, the enrichment ratio is no more than 0.25. For HQCV the value was no more than 0.25; for TFPC, no more than 0.25; for NCGT, no more than 0.25.

On to ECCK, for which the enrichment ratio was no more than 0.25. With PWRR, the enrichment ratio is no more than 0.25.

As to FLGK, the enrichment ratio was no more than 0.25. In the case of NCMP, the enrichment ratio was no more than 0.25. With QDVW the figure was no more than 0.25; with GFDE, no more than 0.25. For KYAN the value was no more than 0.25; for ACYS, 0.536. On to TFTT, for which the enrichment ratio is no more than 0.25. With MYQD the figure was no more than 0.25. For IAMI the value was 8.99; for MRTE, no more than 0.25; for MFMI, no more than 0.25. With HQFG the figure was no more than 0.25; with EQWY, no more than 0.25.

Take TCII: the enrichment ratio is no more than 0.25. Turning to TPLE, the enrichment ratio was no more than 0.25. With AEYC, the enrichment ratio was determined as 5.28. In the case of LVWY, the enrichment ratio was no more than 0.25. As for WHHW, the enrichment ratio was no more than 0.25.

With SNVM, the enrichment ratio was found to be 4.8. For ESNN the value was no more than 0.25; for SMWM, no more than 0.25; for DPLG, no more than 0.25. For DETI the value was no more than 0.25.

As to FFTQ, the enrichment ratio was no more than 0.25. With SQCY the figure was 12.2. Consider YCSK, for which the enrichment ratio was 0.633.

As to RGDG, the enrichment ratio was no more than 0.25. With RTMY the figure was no more than 0.25; with MKIG, no more than 0.25; with FMIV, no more than 0.25.

As for SCFN, the enrichment ratio is no more than 0.25. For GSEI the value was no more than 0.25; for SYAT, 0.272; for TFPR, no more than 0.25. With HKPA the figure was no more than 0.25; with PNNC, no more than 0.25; with RGGV, no more than 0.25.

FKHT: the enrichment ratio is no more than 0.25. With QGKL the figure was no more than 0.25. Regarding SEGQ, the enrichment ratio was no more than 0.25. With LPPE the figure was no more than 0.25; with SRSV, no more than 0.25; with ICQP, no more than 0.25. For PAKL the value was no more than 0.25. For WRYK, the enrichment ratio is no more than 0.25.

On to GRPG, for which the enrichment ratio is no more than 0.25. For KFLG the value was no more than 0.25; for ETEK, no more than 0.25; for DQRQ, no more than 0.25. With NLWD the figure was no more than 0.25. With HGYR the figure was no more than 0.25; with LIKN, no more than 0.25. On to EGPN, for which the enrichment ratio was no more than 0.25.

On to AIQY, for which the enrichment ratio was no more than 0.25. With MICL the figure was 7.38; with VVVP, no more than 0.25; with LLYV, no more than 0.25. For VMTN the value was no more than 0.25. For FSQE the value was no more than 0.25. For STID, the enrichment ratio was no more than 0.25. For GSCG the value was no more than 0.25; for NCWN, no more than 0.25; for QMRC, no more than 0.25. With LMEK the figure was no more than 0.25; with DFCV, no more than 0.25; with VVLH, no more than 0.25. With TMIP the figure was no more than 0.25. Turning to TPAS, the enrichment ratio was no more than 0.25. As to REAC, the enrichment ratio is no more than 0.25.

For the variant EAFV, the enrichment ratio is no more than 0.25.

As to KVYD, the enrichment ratio is no more than 0.25.

Take MVTI: the enrichment ratio was determined as 1.79. For FHWF the value was no more than 0.25; for GIAF, 4.76; for IDDE, no more than 0.25.

For the variant SIRT, the enrichment ratio was no more than 0.25. With QDPK the figure was no more than 0.25; with MEDG, no more than 0.25; with KTSV, no more than 0.25. With SGWR the figure was no more than 0.25; with VAPI, no more than 0.25; with QRCT, no more than 0.25. With RNSP the figure was no more than 0.25; with TADD, no more than 0.25; with WSLG, no more than 0.25. In the case of IYMS, the enrichment ratio was no more than 0.25. As for MGKC, the enrichment ratio is no more than 0.25.

For HHGM, the enrichment ratio is no more than 0.25. As to DDFD, the enrichment ratio is no more than 0.25.

In the case of DMTP, the enrichment ratio was no more than 0.25. Turning to VAEH, the enrichment ratio is no more than 0.25. Take KALP: the enrichment ratio is no more than 0.25. For RICH the value was no more than 0.25. With SMLP, the enrichment ratio was no more than 0.25. With FELI the figure was 10.8.

Turning to RWDL, the enrichment ratio is no more than 0.25. With NSLC the figure was no more than 0.25.

As to LWAR, the enrichment ratio was no more than 0.25.

Regarding VELC, the enrichment ratio was 11.

Turning to IFHC, the enrichment ratio is no more than 0.25.

In the case of FLRK, the enrichment ratio is no more than 0.25. For PIKI the value was no more than 0.25; for EQQS, no more than 0.25.

As for MLWL, the enrichment ratio is no more than 0.25. Turning to PENS, the enrichment ratio was no more than 0.25.

Turning to MMFE, the enrichment ratio is no more than 0.25. For IMNM the value was no more than 0.25.

With HNVT, the enrichment ratio was no more than 0.25. On to EYRF, for which the enrichment ratio is no more than 0.25.

On to VFPL, for which the enrichment ratio is no more than 0.25. For HNGQ the value was no more than 0.25; for YENE, no more than 0.25; for TMFW, no more than 0.25.

With HDYI, the enrichment ratio is no more than 0.25.

As for PGHH, the enrichment ratio was no more than 0.25. With YHEF, the enrichment ratio is no more than 0.25. For DSYD the value was no more than 0.25; for FFEA, no more than 0.25; for IDAT, no more than 0.25. For RSYA, the enrichment ratio was no more than 0.25. With KKYQ the figure was no more than 0.25.

The values above are taken from a collection of fitness landscapes (doi:10.1126/science.1257360).
